Test results taken from the supplement of paper PMC9334596.
“And” between values parts separate entries of the source, which are not always exact repeats. Equal entries are not always repeated. Over roughly 5,300 compounds, “PER2::LUC luminescence relative to vehicle control” has its median near 0.96; the highest 2% begin near 1.3. The list shows a part of the results.

Test system: mPer2Luc MEF
Test: PER2::LUC luminescence relative to vehicle control (fold of vehicle); higher = higher PER2::LUC reporter signal
Conditions: 10 µM
In short: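 Mouse embryonic fibroblasts carrying the mPer2Luc reporter were seeded at ~3000 cells per well in 384-well plates, 48 h before compounds from commercial libraries were added at 10 μM. Cells were grown in DMEM with 10% FBS at 37 °C and 5% CO2. Luminescence was read with the ONE-Glo luciferase assay system 24 h and 30 h after treatment, followed by an alamarBlue viability assay. The value is PER2::LUC luminescence as fold of vehicle control.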

| Structure (SMILES) | PER2::LUC luminescence (time after treatment 24 h) | PER2::LUC luminescence (time after treatment 30 h) |
| --- | --- | --- |
| CCCCCCCC/C=C\CCCCCCCC(=O)O.NCCO | 1.03 | 0.911 |
| COC(=O)N/N=C/c1c[n+]([O-])c2ccccc2[n+]1[O-] | 0.789 | 1.08 |
| CC(C)(Oc1ccc(Cl)cc1)C(=O)OCCOC(=O)c1cccnc1 | 1.03 | 0.989 |
| CN(C(=O)CN(CCO)CC(=O)N(C)C(C)(C)Cc1ccccc1)C(C)(C)Cc1ccccc1 | 0.645 | 0.711 |
| O=C(O)C1=CC(=C(c2ccc(O)c(C(=O)O)c2)c2ccc(O)c(C(=O)O)c2)C=CC1=O | 0.776 | 0.638 |
| CC1=NN(c2ccc(C)c(C)c2)C(=O)/C1=N\Nc1cccc(-c2cccc(C(=O)O)c2)c1O | 1.11 | 1.12 |
| NC(C(=O)O)C(O)C(=O)O (racemic) | 1.26 | 1.25 |
| CCn1c(=O)c2c(nc(/C=C/c3ccc(OC)c(OC)c3)n2C)n(CC)c1=O | 0.779 | 0.855 |
| CCCn1c(=O)c(C)cn2nc(N)nc12 | 0.976 | 0.938 |
| C/C=C\c1ccc(OC)cc1 | 1 | 1.03 |
| Cc1ccc(OCC(O)C(C)NC(C)C)c2c1CCC2 (stereo unspecified) | 0.839 | 0.772 |
| COc1cc(O)c2c(=O)c(OC)c(-c3ccc(OC)c(OC)c3)oc2c1 | 0.869 | 0.928 |
| CN1C(=O)N[C@H](Cc2c[nH]c3c(Cl)cccc23)C1=O | 0.87 | 0.819 |
| O=c1ccn([C@@H]2O[C@H](COP(=O)(O)OP(=O)(O)O)[C@@H](O)[C@H]2O)c(=O)[nH]1 | 0.987 | 1.03 |
| CC(C(O)c1ccc(O)cc1)N1CCC(Cc2ccccc2)CC1 (stereo unspecified) | 0.965 and 0.712 | 0.891 and 0.718 |
| C[C@@H]1C/C=C/C=C/C=C/C=C/[C@H](O[C@@H]2O[C@H](C)[C@@H](O)[C@H](N)[C@@H]2O)C[C@@H]2O[C@](O)(C[C@@H](O)C[C@H]3O[C@@H]3/C=C/C(=O)O1)C[C@H](O)[C@H]2C(=O)O | 0.92 and 0.933 | 1.09 and 0.88 |
| O=C(O)c1ccc[n+]([O-])c1 | 1.15 | 0.892 |
| Cc1c(N)c(=O)n(-c2ccccc2)n1C | 0.986 | 0.995 |
| O=C(/C=C/c1cccc(S(=O)(=O)Nc2ccccc2)c1)NO | 0.425 | 0.4 |
| NC[C@H]1O[C@H](O[C@H]2[C@H](O)[C@@H](O[C@H]3O[C@H](CO)[C@@H](O)[C@H](N)[C@H]3O)[C@H](N)C[C@@H]2N)[C@H](N)C[C@@H]1O | 1.25 | 1.2 |
| CSC[C@H]1O[C@@H](n2cnc3c(N)ncnc32)[C@H](O)[C@@H]1O | 0.938 | 0.773 |
| COc1ccc2c(c1)c(CC(=O)O)c(C)n2C(=O)c1ccccc1 | 0.994 | 1.01 |
| NC1(C(=O)O)C[C@@H](C(=O)O)[C@H](C(=O)O)C1 (racemic) | 0.98 | 0.892 |
